The list shows a part of the results.
Legend:
Assay in all cases: glycan array binding signal (z-score within array); higher = stronger binding
Settings in all cases: glycan notation: IUPAC condensed, linker removed
[1] = target: Neu5Ac(a2-3)Gal(b1-4)GlcNAc(b1-2)[Neu5Ac(a2-3)Gal(b1-4)GlcNAc(b1-4)]Man(a1-3)[GlcNAc(b1-4)][Neu5Ac(a2-3)Gal(b1-4)GlcNAc(b1-2)[Neu5Ac(a2-3)Gal(b1-4)GlcNAc(b1-6)]Man(a1-6)]Man(b1-4)GlcNAc(b1-4)GlcNAc
In short: (§1)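 The Consortium for Functional Glycomics database supplied 3228 glycan arrays, of which those lacking an available protein sequence were dropped. The binding signal, a within-array Z-score, was averaged across arrays of the same protein sequence and across linkers. Negative scores can be read as non-binding.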

[2] = target: Neu5Ac(a2-3)Gal(b1-4)GlcNAc(b1-2)[Neu5Ac(a2-3)Gal(b1-4)GlcNAc(b1-4)]Man(a1-3)[GlcNAc(b1-4)][Neu5Ac(a2-3)Gal(b1-4)GlcNAc(b1-4)Man(a1-6)]Man(b1-4)GlcNAc(b1-4)GlcNAc
In short: as §1

[3] = target: Neu5Ac(a2-3)Gal(b1-4)GlcNAc(b1-2)[Neu5Ac(a2-3)Gal(b1-4)GlcNAc(b1-6)]Man(a1-6)[Neu5Ac(a2-3)Gal(b1-4)GlcNAc(b1-2)Man(a1-3)][GlcNAc(b1-4)]Man(b1-4)GlcNAc(b1-4)GlcNAc
In short: as §1

[4] = target: Neu5Ac(a2-3)Gal(b1-4)GlcNAc(b1-3)Gal
In short: as §1

[5] = target: Neu5Ac(a2-3)Gal(b1-4)GlcNAc(b1-3)Gal(b1-3)GlcNAc
In short: as §1

[6] = target: Neu5Ac(a2-3)Gal(b1-4)GlcNAc(b1-3)Gal(b1-4)GlcNAc
In short: as §1

[7] = target: Neu5Ac(a2-3)Gal(b1-4)GlcNAc(b1-3)Gal(b1-4)GlcNAc(b1-2)Man(a1-3)[Neu5Ac(a2-3)Gal(b1-4)GlcNAc(b1-3)Gal(b1-4)GlcNAc(b1-2)Man(a1-6)]Man(b1-4)GlcNAc(b1-4)GlcNAc
In short: as §1

[8] = target: Neu5Ac(a2-3)Gal(b1-4)GlcNAc(b1-3)Gal(b1-4)GlcNAc(b1-3)Gal(b1-4)GlcNAc
In short: as §1

[9] = target: Neu5Ac(a2-3)Gal(b1-4)GlcNAc(b1-3)Gal(b1-4)GlcNAc(b1-3)Gal(b1-4)GlcNAc(b1-2)Man(a1-3)[Neu5Ac(a2-3)Gal(b1-4)GlcNAc(b1-3)Gal(b1-4)GlcNAc(b1-3)Gal(b1-4)GlcNAc(b1-2)Man(a1-6)]GalNAc
In short: as §1

[10] = target: Neu5Ac(a2-3)Gal(b1-4)GlcNAc(b1-3)Gal(b1-4)GlcNAc(b1-3)GalNAc
In short: as §1

[11] = target: Neu5Ac(a2-3)Gal(b1-4)GlcNAc(b1-3)Gal(b1-4)GlcNAc(b1-3)[Neu5Ac(a2-3)Gal(b1-4)GlcNAc(b1-3)Gal(b1-4)GlcNAc(b1-6)]GalNAc
In short: as §1

[12] = target: Neu5Ac(a2-3)Gal(b1-4)GlcNAc(b1-3)Gal(b1-4)GlcNAc(b1-6)[Gal(b1-3)]GalNAc
In short: as §1

[13] = target: Neu5Ac(a2-3)Gal(b1-4)GlcNAc(b1-3)Gal(b1-4)[Fuc(a1-3)]GlcNAc
In short: as §1

[14] = target: Neu5Ac(a2-3)Gal(b1-4)GlcNAc(b1-3)GalNAc
In short: as §1

[15] = target: Neu5Ac(a2-3)Gal(b1-4)GlcNAc(b1-3)[Neu5Ac(a2-3)Gal(b1-4)GlcNAc(b1-6)]GalNAc
In short: as §1

[16] = target: Neu5Ac(a2-3)Gal(b1-4)GlcNAc(b1-6)GalNAc
In short: as §1

[17] = target: Neu5Ac(a2-3)Gal(b1-4)GlcNAc(b1-6)[Gal(b1-3)]GalNAc
In short: as §1

[18] = target: Neu5Ac(a2-3)Gal(b1-4)GlcNAc(b1-6)[Neu5Ac(a2-3)Gal(b1-3)]GalNAc
In short: as §1

[19] = target: Neu5Ac(a2-3)Gal(b1-4)GlcNAc6S
In short: as §1

[20] = target: Neu5Ac(a2-3)Gal(b1-4)[Fuc(a1-3)]GlcNAc
In short: as §1

[21] = target: Neu5Ac(a2-3)Gal(b1-4)[Fuc(a1-3)]GlcNAc(b1-2)Man
In short: as §1

[22] = target: Neu5Ac(a2-3)Gal(b1-4)[Fuc(a1-3)]GlcNAc(b1-3)Gal
In short: as §1

[23] = target: Neu5Ac(a2-3)Gal(b1-4)[Fuc(a1-3)]GlcNAc(b1-3)Gal(b1-4)GlcNAc
In short: as §1

[24] = target: Neu5Ac(a2-3)Gal(b1-4)[Fuc(a1-3)]GlcNAc(b1-3)Gal(b1-4)[Fuc(a1-3)]GlcNAc(b1-3)Gal(b1-4)[Fuc(a1-3)]GlcNAc
In short: as §1

[25] = target: Neu5Ac(a2-3)Gal(b1-4)[Fuc(a1-3)]GlcNAc(b1-3)GalNAc
In short: as §1

[26] = target: Neu5Ac(a2-3)Gal(b1-4)[Fuc(a1-3)]GlcNAc(b1-6)[Gal(b1-3)]GalNAc
In short: as §1

[27] = target: Neu5Ac(a2-3)Gal(b1-4)[Fuc(a1-3)]GlcNAc(b1-6)[Neu5Ac(a2-3)Gal(b1-3)]GalNAc
In short: as §1

[28] = target: Neu5Ac(a2-3)Gal(b1-4)[Fuc(a1-3)]GlcNAc6S
In short: as §1

[29] = target: Neu5Ac(a2-3)Gal6S(b1-4)GlcNAc
In short: as §1

[30] = target: Neu5Ac(a2-3)Gal6S(b1-4)[Fuc(a1-3)]GlcNAc
In short: as §1

Neu5Ac(a2-3)GalNAc = target: Neu5Ac(a2-3)GalNAc
In short: as §1

[31] = target: Neu5Ac(a2-3)GalNAc(b1-4)GlcNAc
In short: as §1

[32] = target: Neu5Ac(a2-3)[GalNAc(b1-4)]Gal(b1-4)Glc
In short: as §1

[33] = target: Neu5Ac(a2-3)[GalNAc(b1-4)]Gal(b1-4)GlcNAc
In short: as §1

[34] = target: Neu5Ac(a2-3)[GalNAc(b1-4)]Gal(b1-4)GlcNAc(b1-3)GalNAc
In short: as §1

[35] = target: Neu5Ac(a2-3)[Neu5Ac(a2-6)]GalNAc
In short: as §1

Neu5Ac(a2-6)Gal = target: Neu5Ac(a2-6)Gal
In short: as §1

B1: OGAN (protein)
chain: MVQKESQATLEERESELSSNPAASAGASLEPPAAPAPGEDNPAGAGGAAVAGAAGGARRFLCGVVEGFYGRPWVMEQRKELFRRLQKWELNTYLYAPKDDYKHRMFWREMYSVEEAEQLMTLISAAREYEIEFIYAISPGLDITFSNPKEVSTLKRKLDQVSQFGCRSFALLFNDIDHNMCAADKEVFSSFAHAQVSITNEIYQYLGEPETFLFCPTEYCGTFCYPNVSQSPYLRTVGEKLLPGIEVLWTGPKVVSKEIPVESIEEVSKIIKRAPVIWDNIHANDYDQKRLFLGPYKGRSTELIPRLKGVLTNPNCEFEANYVAIHTLATWYKSNMNGVRKDVVMTDSEDSTVSIQIKLENEGSDEDIETDVLYSPQMALKLALTEWLQEFGVPHQY
Q: With B1 as the binder, how does the “glycan array binding signal (z-score)” value [1] read?
A: -0.075

Q: What about the “glycan array binding signal (z-score)” value [2] of the same binder?
A: 0.026

Q: And the “glycan array binding signal (z-score)” value [3]?
A: -0.022

Q: What about the “glycan array binding signal (z-score)” value [4] of the same binder?
A: -0.071

Q: And the “glycan array binding signal (z-score)” value [5]?
A: -0.077

Q: What about the “glycan array binding signal (z-score)” value [6] of the same binder?
A: -0.086

Q: And the “glycan array binding signal (z-score)” value [7]?
A: -0.061

Q: What about the “glycan array binding signal (z-score)” value [8] of the same binder?
A: -0.009

Q: And the “glycan array binding signal (z-score)” value [9]?
A: -0.024

Q: And the “glycan array binding signal (z-score)” value [10]?
A: -0.071

Q: What about the “glycan array binding signal (z-score)” value [11] of the same binder?
A: -0.021

Q: And the “glycan array binding signal (z-score)” value [12]?
A: -0.092

Q: What about the “glycan array binding signal (z-score)” value [13] of the same binder?
A: 0.037

Q: What about the “glycan array binding signal (z-score)” value [14] of the same binder?
A: -0.082

Q: What about the “glycan array binding signal (z-score)” value [15] of the same binder?
A: -0.031

Q: What about the “glycan array binding signal (z-score)” value [16] of the same binder?
A: -0.091

Q: What about the “glycan array binding signal (z-score)” value [17] of the same binder?
A: -0.04

Q: What about the “glycan array binding signal (z-score)” value [18] of the same binder?
A: -0.067

Q: And the “glycan array binding signal (z-score)” value [19]?
A: -0.004

Q: What about the “glycan array binding signal (z-score)” value [20] of the same binder?
A: -0.081

Q: And the “glycan array binding signal (z-score)” value [21]?
A: -0.067

Q: And the “glycan array binding signal (z-score)” value [22]?
A: -0.094

Q: And the “glycan array binding signal (z-score)” value [23]?
A: 0.019

Q: What about the “glycan array binding signal (z-score)” value [24] of the same binder?
A: -0.007

Q: What about the “glycan array binding signal (z-score)” value [25] of the same binder?
A: -0.016

Q: And the “glycan array binding signal (z-score)” value [26]?
A: -0.035

Q: What about the “glycan array binding signal (z-score)” value [27] of the same binder?
A: -0.037

Q: And the “glycan array binding signal (z-score)” value [28]?
A: -0.069

Q: What about the “glycan array binding signal (z-score)” value [29] of the same binder?
A: -0.067

Q: And the “glycan array binding signal (z-score)” value [30]?
A: -0.039

Q: And the “glycan array binding signal (z-score)” value (Neu5Ac(a2-3)GalNAc)?
A: -0.085

Q: What about the “glycan array binding signal (z-score)” value [31] of the same binder?
A: -0.08

Q: What about the “glycan array binding signal (z-score)” value [32] of the same binder?
A: -0.022

Q: And the “glycan array binding signal (z-score)” value [33]?
A: -0.045

Q: And the “glycan array binding signal (z-score)” value [34]?
A: -0.039

Q: And the “glycan array binding signal (z-score)” value [35]?
A: -0.068

Q: And the “glycan array binding signal (z-score)” value (Neu5Ac(a2-6)Gal)?
A: -0.049
